Measurements: PubChem BioAssay AID504339 (National Center for Advancing Translational Sciences (NCATS), 2011)
Hit rate of the full screen: of about 390,000 compounds, about 17,000 (4.4%) were called active. Inconclusive results, whose numbers are uncertain, are shown with a selection of clear calls. Calls follow the shape of the dose curve; as a rule, active = well fitted inhibition curve with a large enough effect; inconclusive = small, poorly fitted or top-dose-only effect; inactive = no such curve, though single readings can be large or run the other way. Potencies beside an inconclusive call are fits to weak or partial responses and may not hold up.

Molecular target: Lysine-specific demethylase 4A (Homo sapiens) (UniProt O75164)
Chain of UniProt O75164 (O75164 whole entry, looked up, the tested form may be a part): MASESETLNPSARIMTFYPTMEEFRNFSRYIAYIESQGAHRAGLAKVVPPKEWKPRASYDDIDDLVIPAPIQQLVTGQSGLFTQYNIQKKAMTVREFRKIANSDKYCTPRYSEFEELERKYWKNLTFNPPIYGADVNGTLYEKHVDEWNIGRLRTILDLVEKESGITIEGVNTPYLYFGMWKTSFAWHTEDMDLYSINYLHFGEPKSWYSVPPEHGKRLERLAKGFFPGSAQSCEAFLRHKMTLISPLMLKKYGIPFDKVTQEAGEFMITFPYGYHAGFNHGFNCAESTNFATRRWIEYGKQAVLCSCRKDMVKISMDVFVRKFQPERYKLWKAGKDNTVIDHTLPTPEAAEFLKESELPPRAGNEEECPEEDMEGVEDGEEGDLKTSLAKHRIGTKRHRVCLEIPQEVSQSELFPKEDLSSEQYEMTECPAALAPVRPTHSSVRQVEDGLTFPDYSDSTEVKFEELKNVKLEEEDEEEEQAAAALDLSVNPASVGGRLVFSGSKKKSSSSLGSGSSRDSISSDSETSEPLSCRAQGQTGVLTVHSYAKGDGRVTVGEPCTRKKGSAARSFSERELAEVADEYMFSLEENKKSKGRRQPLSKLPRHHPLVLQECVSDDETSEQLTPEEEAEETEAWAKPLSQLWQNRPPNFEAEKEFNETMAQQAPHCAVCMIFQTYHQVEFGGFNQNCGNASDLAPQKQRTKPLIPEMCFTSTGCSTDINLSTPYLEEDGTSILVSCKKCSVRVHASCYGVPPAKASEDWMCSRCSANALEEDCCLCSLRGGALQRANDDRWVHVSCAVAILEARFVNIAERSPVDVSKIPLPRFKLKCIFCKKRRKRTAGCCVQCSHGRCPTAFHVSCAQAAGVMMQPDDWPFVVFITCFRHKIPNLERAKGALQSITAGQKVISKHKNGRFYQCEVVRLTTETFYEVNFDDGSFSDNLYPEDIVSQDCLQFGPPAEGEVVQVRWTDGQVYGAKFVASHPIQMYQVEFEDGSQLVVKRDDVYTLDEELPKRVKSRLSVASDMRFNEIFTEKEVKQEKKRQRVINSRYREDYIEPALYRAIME
Test: qHTS Assay for Inhibitors of JMJD2A-Tudor Domain; also: nearly all actives have a fitted effect of over 50% in size
Settings: AlphaScreen JMJD2A-Tudor / H3K4me3 peptide binding; activity change, negative = inhibition: at 114 µM (top of the series)
% is scaled to controls: 0 for no effect and ±100 for the full control effect; potency is read from the fitted curve at half-maximal effect; tags tell the direction and shape of the fitted curve.

SMILES | Potency | activity change, negative = inhibition
Cc1nc2sc(C(=O)OC(C)C)c(N)c2c(C)c1C | inconclusive: 100 µM [inhibitor, partial curve, poor fit] | –
O=C(COc1ccc2c(c1)OCO2)NC12CC3CC(CC(C3)C1)C2 | inconclusive: 70.8 µM [inhibitor, single point] | –
C/C(=N\Nc1nccnc1Cl)c1ccc(Cl)c(Cl)c1 | inconclusive: 1.41 µM [inhibitor, full curve, poor fit] | –
CC(=O)n1nc(-c2ccc(Cl)cc2)nc1NCc1ccco1 | inconclusive: 22.4 µM [inhibitor, full curve, poor fit] | –
N/C(=N\OC(=O)Cc1ccc([N+](=O)[O-])cc1)c1cccc(Br)c1 | inconclusive: 50.1 µM [inhibitor, partial curve] | –
CCCC(=O)Nc1nc(C)c(-c2csc(Nc3ccccc3OC)n2)s1 | inconclusive: 63.1 µM [inhibitor, partial curve, poor fit] | –
Cc1nn(-c2ccccc2)nc1C(=O)Nc1ccc2[nH]ncc2c1 | inconclusive: 39.8 µM [inhibitor, single point] | –
O=C1S/C(=C\c2ccccc2)C(=O)N1CC(O)Cn1c2ccccc2c2ccccc21 (stereo unspecified) | inactive | –
CCC(=O)c1ccccc1OCCCCn1cncn1 | active: 5.62 µM | –
C[C@@H]1CC[C@]2(O[C@H](CCO)C[C@H](O)[C@H]2O)O1 | inactive | –
COc1ccc(-c2nc(CS(=O)(=O)CC(=O)NC3CCCCC3C)c(C)o2)cc1 (stereo unspecified) | inconclusive: 14.1 µM [inhibitor, full curve, poor fit] | –
CC(C)c1ccc(NC(=O)NC2CCCCC2)cc1 | inconclusive: 89.1 µM [inhibitor, single point] | –
COC(=O)C1=C(C(=O)OC)[C@@H]2N(C)c3ccc(OC)cc3[C@@]23C[C@@H](C(=O)OC)N(S(=O)(=O)c2ccc([N+](=O)[O-])cc2)C3=N1 | inconclusive: 6.31 µM [inhibitor, full curve] | –
CC1CCN(C(=O)c2[nH]cnc2C(=O)NCc2ccccc2)CC1 | inconclusive: 100 µM [inhibitor, single point] | –
O=C(c1ccc2c(c1)N(Cc1ccc(F)cc1)C(=O)c1ccccc1S2(=O)=O)N1CCCC1 | inactive | –
Cn1c(-c2ccsc2)c(-c2cccs2)c2cc(-c3ccc4cc[nH]c4c3)ccc21 | inconclusive: 63.1 µM [inhibitor, partial curve, poor fit] | –
CC(=O)Nc1ccc(-n2cc(-c3ccccc3)[nH]c2=S)cc1 | active: 0.891 µM | –
COc1ccc(C2CC(c3ccccc3)Oc3ccc(OC)cc32)cc1 (stereo unspecified) | inconclusive: 50.1 µM [inhibitor, partial curve] | –
COc1ccc(C(=O)NC(=S)NNC(=O)c2ccc(NC(=O)C(C)C)cc2)cc1 | inconclusive: 89.1 µM [inhibitor, partial curve, poor fit] | –
Cc1coc(C)c1C(=O)CC1(O)C(=O)N(Cc2ccccc2)c2ccccc21 (stereo unspecified) | active: 89.1 µM | –
COc1cc(NC(=O)C2=CC(c3cccs3)=NS(=O)(=O)N2C)cc(OC)c1OC | inconclusive: 28.2 µM [inhibitor, full curve, poor fit] | –
O=C(Nc1ccc(Cl)cn1)c1cc2c(s1)-c1ccccc1OC2 | inactive | –
CN(Cc1c(C(=O)N/N=C/c2ccccc2)nnn1-c1nonc1N)c1ccccc1 | inconclusive: 50.1 µM [inhibitor, partial curve] | –
O=C(O)c1c(C(=O)O)c(-c2ccc(Cl)c(Cl)c2)n2c1CSC2 | inactive | –

SMILES | Potency | activity change, negative = inhibition
O=C1/C(=C/c2ccc(O)c([N+](=O)[O-])c2)SC(=S)N1Cc1ccccc1 | active: 3.98 µM | –
CN(C)C(=O)CSc1ccc(S(=O)(=O)N2CCOCC2)cn1 | inactive | –
CCCCCn1c(CCNC(=O)c2ccc(F)cc2)nc2ccccc21 | inactive | –
CCOC(=O)c1sc(NC(=O)CSc2nc(C)cc(C(F)(F)F)n2)c(C#N)c1C | active: 50.1 µM | –
CCCn1c(C)cc(C(=O)COC(=O)c2ccc[nH]c2=O)c1C | inconclusive: 39.8 µM [inhibitor, single point] | –
CC(C)CCNc1nc2c(c(=O)n(Cc3cccc(F)c3)c(=O)n2C)n1C | inconclusive: 100 µM [inhibitor, partial curve] | –
O=C(Nc1nnc(CCS(=O)(=O)c2ccc(Br)cc2)s1)c1ccc([N+](=O)[O-])cc1 | inactive | –
CCOC(=O)/C(C(=O)Nc1ccc(Br)cc1)=C1/NC(C)(C)Cc2ccccc21 | inconclusive: 100 µM [inhibitor, single point] | –
CC(=O)Oc1ccc(/C=N\NC(=O)c2cc3c(ccc4ccccc43)o2)cc1 | inconclusive: 2.82 µM [inhibitor, full curve, poor fit] | –
C=CCN1C(=O)c2ccc(C(=O)NCCOc3ccccc3F)cc2C1=O | inactive | –
COc1cccc(-c2cc(C(=O)Nc3cc(OC)c(OC)c(OC)c3)on2)c1 | inconclusive: 39.8 µM [inhibitor, full curve] | –
S=c1[nH]nc(CCc2ccccc2)n1Cc1ccccc1 | inconclusive: 50.1 µM [inhibitor, partial curve] | –
Cc1cc(C)c2c(c1C)C(=O)CCC2 | inactive | –
CCC(CC)c1nnc(NC(=O)C2=NNC(=O)CC2)s1 | inconclusive: 3.55 µM [inhibitor, single point] | –
COc1ccc(CNC(=S)Nc2ccccc2C)cc1 | inconclusive: 17.8 µM [inhibitor, partial curve] | –
COc1ccc(-c2nc(Cn3c(SCc4ccc(C)cc4)nc4cccnc43)c(C)o2)cc1OC | inconclusive: 50.1 µM [inhibitor, partial curve] | –
O=S(=O)(c1ccccc1)c1nc(-c2ccc(Cl)cc2Cl)oc1N1CCCCCC1 | inconclusive: 39.8 µM [inhibitor, full curve, poor fit] | –
O=C(O)c1ccc(NC(=O)C2(c3ccccc3)CCOCC2)cc1 | inactive | –
CN(C)CCC[C@@]1(c2ccc(F)cc2)OCc2cc(C#N)ccc21 | active: 35.5 µM | –
CN(C)c1ccc2c(c1)C(=NO)c1ccccc1-2 | active: 39.8 µM | –
COc1ccc(C(C(=O)OC(C)CN(C)C)c2ccccc2)cc1 (stereo unspecified) | inconclusive: 89.1 µM [inhibitor, single point] | –
CCc1ccc(/C=C/C(=O)c2cc(Br)ccc(=O)c2O)cc1 | active: 79.4 µM | –
CC1=C(C(=O)OCc2ccccc2)C(c2cccc([N+](=O)[O-])c2)NC(=O)N1C (stereo unspecified) | inconclusive: 56.2 µM [inhibitor, partial curve] | –
CCCCN(CCCC)S(=O)(=O)c1ccc(SCC(=O)OCC)c([N+](=O)[O-])c1 | inconclusive: 35.5 µM [inhibitor, partial curve] | –

SMILES | Potency | activity change, negative = inhibition
Cc1ccsc1/C=C1\SC(=S)N(CC2CCCO2)C1=O (stereo unspecified) | active: 10 µM | –
CCN1C(=NCCCCO)N[C@@H](c2cccc(C(F)(F)F)c2)C(C(=O)OC)=C1C | inconclusive: 28.2 µM [inhibitor, partial curve] | –
Cc1ccc(OCCCNC2CCCC2)cc1 | active: 22.4 µM | –
NS(=O)(=O)c1ccc(Nc2nc(-c3cccnc3)cs2)cc1 | inactive | –
CNc1oc(C)nc1S(=O)(=O)c1ccc(C)cc1 | inconclusive: 56.2 µM [inhibitor, partial curve, poor fit] | –
COc1ccc(C2(C(=O)Nc3ccc(S(N)(=O)=O)cc3)CCCC2)cc1 | inconclusive: 31.6 µM [inhibitor, full curve, poor fit] | –
Cc1ccc(CNC(=O)CSc2c3c(nc4cc(Cl)ccc24)CCCC3)o1 | inconclusive: 89.1 µM [inhibitor, partial curve] | –
Cc1ccc(OC(=O)Nc2ccccc2)cc1 | inactive | –
N#C/C(=C(/O)CCCl)c1ccccn1 | inconclusive: 25.1 µM [inhibitor, full curve] | –
CCOC(=O)C1CCN(c2ncnc3c2nnn3C)CC1 | inactive | –
Cc1ccc(Nc2nnc(-c3ccc(N4CCOCC4)c([N+](=O)[O-])c3)c3ccccc23)cc1 | – | inconclusive: -43.5% [inhibitor]
CN(Cc1ccccc1)c1ccc(C(CC(N)=O)NC(=O)c2ccc(Br)cc2)cc1[N+](=O)[O-] (stereo unspecified) | inconclusive: 44.7 µM [inhibitor, partial curve] | –
CC(C)CC(=O)N1CCC(N(CCc2ccccc2)Cc2ccccc2)CC1 | active: 28.2 µM | –
Cc1ccc2nc(-c3ccc(N4C(=N)SC5CS(=O)(=O)CC54)cc3)sc2c1 (stereo unspecified) | inactive | –
Nc1n[nH]c(N)c1N=Nc1ccc(Cl)cc1Cl | active: 31.6 µM | –
Cc1ccc(C(=O)NCCNc2ccc([N+](=O)[O-])cc2C(F)(F)F)cc1 | inconclusive: 25.1 µM [inhibitor, single point] | –
Oc1ccccc1C(=S)N1CCN(c2cccc(Cl)c2)CC1 | inconclusive: 50.1 µM [inhibitor, partial curve] | –
CSc1nsc(SC)c1C(=O)Nc1ccc(C(C)(C)C)cc1 | inactive | –
COc1cccc(NC(=O)CN(C)C(=O)CCNS(=O)(=O)c2ccc(C)cc2)c1 | inactive | –
Cc1noc(NS(=O)(=O)c2ccc(NC(=O)c3cnc4scc(C)n4c3=O)cc2)c1C | inconclusive: 89.1 µM [inhibitor, partial curve] | –
CCCCCC(=O)NNC(=S)NC(=O)c1cccc([N+](=O)[O-])c1 | active: 35.5 µM | –
Cc1ccccc1C(=O)Nc1cccc(C(=O)OCc2cc(=O)n3c4c(sc3n2)CCCC4)c1 | inactive | –
CCn1c(SCC(=O)NCc2cccs2)nnc1-c1ccco1 | inconclusive: 89.1 µM [inhibitor, single point] | –
